Test results from PMC4336329 (PLoS ONE, 2015).
Out of some 310,000 compounds screened, about 2,200 (0.71%) showed an effect of 50% or more. Effects have a minus sign here. Some of the results follow.

Target: human ether-à-go-go-related gene (hERG) potassium channel (human, UniProt Q12809)
Assay: primary screen, population patch clamp on CHO cells stably expressing hERG

Chain of human ether-à-go-go-related gene (hERG) potassium channel (Q12809 whole entry, looked up): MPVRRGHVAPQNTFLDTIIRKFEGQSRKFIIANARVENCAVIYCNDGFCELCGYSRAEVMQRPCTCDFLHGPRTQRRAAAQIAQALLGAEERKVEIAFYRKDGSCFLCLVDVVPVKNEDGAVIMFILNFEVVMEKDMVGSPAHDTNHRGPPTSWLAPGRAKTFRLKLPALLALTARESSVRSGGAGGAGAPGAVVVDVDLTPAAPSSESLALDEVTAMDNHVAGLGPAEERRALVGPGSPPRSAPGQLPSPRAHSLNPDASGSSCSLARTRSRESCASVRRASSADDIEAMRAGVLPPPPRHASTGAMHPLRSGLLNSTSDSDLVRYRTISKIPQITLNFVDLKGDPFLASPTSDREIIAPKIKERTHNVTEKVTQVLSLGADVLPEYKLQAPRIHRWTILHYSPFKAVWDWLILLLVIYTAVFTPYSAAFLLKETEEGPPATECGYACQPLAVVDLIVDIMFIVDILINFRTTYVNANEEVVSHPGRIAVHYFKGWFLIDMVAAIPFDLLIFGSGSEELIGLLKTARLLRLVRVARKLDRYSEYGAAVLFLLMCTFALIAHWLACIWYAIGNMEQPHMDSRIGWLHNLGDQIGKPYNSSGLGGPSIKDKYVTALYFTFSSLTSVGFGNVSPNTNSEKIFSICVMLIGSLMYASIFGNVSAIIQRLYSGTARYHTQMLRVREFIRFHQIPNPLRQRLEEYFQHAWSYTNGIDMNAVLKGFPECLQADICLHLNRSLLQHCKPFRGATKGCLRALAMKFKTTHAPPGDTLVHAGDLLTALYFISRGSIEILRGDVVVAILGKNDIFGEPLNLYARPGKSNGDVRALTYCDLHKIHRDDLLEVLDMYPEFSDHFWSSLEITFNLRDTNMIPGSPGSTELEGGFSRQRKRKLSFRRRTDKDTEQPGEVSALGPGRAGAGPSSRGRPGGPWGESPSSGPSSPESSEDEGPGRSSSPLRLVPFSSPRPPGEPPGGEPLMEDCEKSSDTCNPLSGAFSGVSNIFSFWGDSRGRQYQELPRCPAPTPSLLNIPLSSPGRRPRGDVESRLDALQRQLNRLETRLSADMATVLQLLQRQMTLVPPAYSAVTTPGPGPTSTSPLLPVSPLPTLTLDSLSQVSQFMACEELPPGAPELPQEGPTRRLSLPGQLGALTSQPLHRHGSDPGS

| SMILES | hERG current change (%, negative = inhibition) at 1uM |
| --- | --- |
| O=S(=O)(c1ccc(Cl)cc1)N1CCCC1c1nc2ccccc2s1 (centres unmarked) | -4.67% |
| COc1ccccc1NC(=O)Cn1c(O)c(N=NC(=O)c2ccccc2O)c2ccccc21 | 13.3% |
| CCOC(=O)c1sc(NC(=O)CN(CC(C)C)CC(C)C)c(C(=O)OCC)c1C | -6.54% |
| O=C(NCCN1CCCCC1)Nc1ccccc1 | -2.18% |
| O=C(Cn1cc(C(F)(F)F)ccc1=O)NCC1CCCO1 (centres unmarked) | 15.8% |
| Cc1ccc(C(=O)NCc2ccco2)cc1S(=O)(=O)N1CCCCC1 | 7.4% |
| O=C(NCC(c1cccnc1)N1CCN(c2ccc(F)cc2)CC1)OCc1ccccc1 (centres unmarked) | -10.1% |
| Cl.O=C(c1ccc(Cl)c(S(=O)(=O)N2CCCCCC2)c1)N1CCN(CCO)CC1 | -7.38% |
| CC1CCCCC1NC(=O)C1CCN(S(=O)(=O)c2ccc(-n3cnnn3)cc2)CC1 (centres unmarked) | 5.61% |
| CC1(C)Cc2c(cnn2-c2ccc(F)cc2)C(NC(=O)c2cnccn2)C1 (centres unmarked) | -6.77% |
| C=CCNC(=O)C(=O)Nc1cc2c3c(c1)CCC(=O)N3CCC2 | -14.9% |
| Cn1c(CNC(=O)OC(C)(C)C)n[nH]c1=S | -1.39% |
| Nc1c(-c2cccc(Cl)c2)cnn1-c1cccc([N+](=O)[O-])c1 | -25% |
| COc1ccc(-n2nnc3c(=O)n(CC(=O)NCC4CCCO4)cnc32)cc1 (centres unmarked) | 6.12% |
| Cc1cc(C)c2[nH]c(=O)c(=O)[nH]c2c1 | 8.64% |
| CCN(CC)S(=O)(=O)c1ccc(N2CCOCC2)c(NC(=O)COc2ccc(C#N)cc2)c1 | 5.39% |
| Cc1ccc(S(=O)(=O)N2CCN(C(=O)c3ccc(S(=O)(=O)N4CCCC4)cc3)CC2)cc1 | 7.22% |
| Fc1ccccc1-c1csc(-c2cccnc2)n1 | 10.4% |
| COc1cc(-c2cc(C(=O)NCCc3ccc(S(N)(=O)=O)cc3)c3ccccc3n2)cc(OC)c1OC | 8.14% |

| SMILES | hERG current change (%, negative = inhibition) at 1uM |
| --- | --- |
| COc1ccccc1-n1c(SCC(=O)O)nnc1-c1ccc(S(=O)(=O)N2CCCCC2)cc1 | -3.86% |
| COCCCNC(=S)NNC(=O)c1ccccc1Br | 11.3% |
| CC(C)(C)n1nnnc1C(c1cccs1)N1CCN(Cc2ccccc2)CC1.Cl (centres unmarked) | -0.642% |
| COc1cccc(-c2cc3nc(-c4ccccc4)cc(N4CCC5(CC4)OCCO5)n3n2)c1 | 10.2% |
| Cc1cccc(C(=O)Nc2cccc(OC(=O)c3cccc(C)c3)c2)c1 | 12% |
| COc1ccc(C2CC(c3ccc4ccccc4c3)=NN2C(=O)CN2CCC(C(N)=O)CC2)cc1 (centres unmarked) | 6.63% |
| CCCNC(=O)c1cc(S(=O)(=O)N2CCc3ccccc32)cn1C | 11.8% |
| CC(=O)c1csc(Nc2ccccc2Cl)n1 | 12.9% |
| CCC(C)C(=O)Nc1cc(Cl)ccc1C(=O)O (centres unmarked) | 12.9% |
| CCCCN(C(=O)CSc1cc(C)c2ccccc2n1)c1c(N)n(Cc2ccccc2)c(=O)[nH]c1=O | 9.11% |
| CC1CCC2(CC1)NC(=O)N(CC(=O)N1CCN(S(=O)(=O)c3ccc4c(c3)CCC4)CC1)C2=O (centres unmarked) | 7.9% |
| COc1cc(CC(=O)OCC(=O)c2c[nH]c3ccccc23)cc(OC)c1OC | 2.96% |
| C/C(=N/NS(=O)(=O)c1ccc(CC(C)C)cc1)c1ccncc1 | 11% |
| COc1ccccc1NC(=O)Nc1nnc(Cc2ccccc2F)s1 | 17.3% |
| O=C(CCNC(=O)c1ccccc1Cl)Nc1ccc(Cl)c(C(F)(F)F)c1 | 11.8% |
| COc1ccc(CC(=O)NCc2n[nH]c(=S)n2-c2ccc(F)cc2)cc1 | 23.3% |
| O=C(O)C(=O)O.O=C(c1cccnc1)N1CCN(Cc2ccc3ccccc3c2)CC1 | -8.13% |
| Fc1cccc(NC(=S)NCCCN2CCOCC2)c1 | -14.8% |
| COc1ccc2c3c(cccc13)C(=O)N(O)C2=O | 0.0209% |

| SMILES | hERG current change (%, negative = inhibition) at 1uM |
| --- | --- |
| O=C(NC1CCCC1)C1CCN(C(=O)Nc2cccc(Cl)c2)CC1 | 15.5% |
| CC1(C)CN(O)CCN1O | 6.68% |
| Cc1nc2cc(NS(=O)(=O)c3cccc4cccnc34)ccc2s1 | 15.3% |
| CS(=O)(=O)c1ccc(Cl)c(NC(=O)COC(=O)CCc2c[nH]c3ccccc23)c1 | -12.3% |
| Cn1nc(-c2ccccc2)c(C(O)c2ccc(Cl)cc2)c1Cl (centres unmarked) | 3.78% |
| Cc1cc(C)cc(NC(=O)C2CCCN2S(=O)(=O)c2ccc3c(c2)n(C)c(=O)c(=O)n3C)c1 (centres unmarked) | 4.5% |
| COc1cccc(OC)c1C(=O)Nc1ccc2c(c1)N(S(=O)(=O)c1cccs1)CCC2 | 16.7% |
| CN1CCN(S(=O)(=O)c2cccc(C(=O)Oc3ccc(C(C)(C)C)cc3)c2)CC1 | 37.2% |
| CCOC(=O)N/N=C1\CC(C)S(=O)(=O)c2ccc(Cl)cc21 (centres unmarked) | 9.57% |
| CCCN(CCC)C(=O)c1cc2c(=O)n3cccc(C)c3nc2s1 | 19.8% |
| CCCc1ccc(NC(=O)C2CCN(c3cnccn3)CC2)cc1 | 4.51% |
| O=C(CCCc1nc2ccccc2s1)NC1CCOC1=O (centres unmarked) | 6.48% |
| N#C/C(=C/c1ccc(N2CCCCCC2)o1)c1cccc(F)c1 | 8.95% |
| C=CCN1C(=O)NC(=O)/C(=C/c2ccc(OC)c(CSc3ccccn3)c2)C1=O | 9.78% |
| COc1ccc(NC(=O)c2cc(C)no2)cc1OC | 7.43% |
| O=C(N/C(=C\c1ccc(F)cc1)C(=O)N1CCOCC1)c1ccccc1 | -6.04% |
| O=C1NCCN1c1ccc(CN2CCN(C3CCCCC3)C(CCO)C2)cc1 (centres unmarked) | 3.87% |
| Cc1cc(C)n(-c2ccc(C(=O)OCC(=O)NCc3ccc(Cl)cc3)cc2)n1 | 0.232% |
